The text below walks through data of the RNAGym collection of RNA variant scans (doi:10.1093/nar/gkz1192).

Read counts are not given, so values of variants with three or more changes are uncertain.

B1: CPEB3 Ribozyme (parent)
chain: UAACAGGGGGCCACAGCAGAAGCGUUCACGUCGCAGCCCCUGUCAGAUUCUGGUGAAUCUGCGAAUUCUGCUGUAUAUCUC

The data set covers variants of B1. As to the kind of experiment: self-cleavage, relative activity (ratio to wild type); higher = more cleavage; in vitro, sequencing. Put shortly: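 CPEB3 self-cleaving ribozyme mutant libraries were made by rounds of error-prone PCR, barcoded, and transcribed in vitro with T7 RNA polymerase for 5 hours at 37°C. Cleavage occurred during transcription and a 15 min DNase I step before EDTA stop. RNAs were reverse transcribed with template switching and Illumina-sequenced, with DNA sequencing mapping barcodes to variants. Relative activity is the variant's cleaved/total read fraction divided by wild type's (minimum 5 reads), averaged across three batches.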
For UAACAGGGGGCCUCAGCAGAAGCGUUCACACCGCAGCCCCUGUCAGCUUCUGGUGAAUCUGCGAAUUCUGCUGUAUAUCUC [A13U G30A U31C A47C], the self-cleavage was 0.06.
The value for UAACAGGGGGCCUCAGCAGAAGCGUUCACGUCGCAGCCCCUAUCGGAUUCUGGUGAAUCUGCGAAUUCUGCUGUAUACCCC [A13U G42A A45G U78C U80C] was 0.16.
Next, UAACAGGGGGCCUCAGCAGAAGCGUUCACGUCGCAGCCCCUGUUAGAUUCUGGUGGAUCUGCGAAUUCUGCUGUAUAUCUC [A13U C44U A56G]: 0.13; UAACAGGGGGCCUCAGCAGAAGCGUUCACGUCGCAUCCCCUGUCAGAUUCUGGUGAAUCUGCGAAUUCAGCUGUAUAUCUC [A13U G36U U69A]: 0.08.
Next, UAACAGGGGGCCUCAGCAGAAUCGUUCACGUCGCAGUCCCUGUCCGAUUCUGGAGAAUCUGCGAAAUCUGCUGUAUAUCUC [A13U G22U C37U A45C U54A U66A]: 0.07.
As to UAACAGGGGGCCUCAGCAGAAGCGUUCACGUCGCAUCCCCAGUCAGGUUCUGGUGAACCUGCGAAUUCUGCUGUAUAUCUC [A13U G36U U41A A47G U58C], the self-cleavage came out at 0.13.
The value for UAACAGGGGGCCUCAGCAGAAAGGUCCACGUCGCAGCCCCUGUCAGAUUCUGGUGAAUCUGUGAAUUCUGCUGUACGUCUC [A13U G22A C23G U26C C62U U76C A77G] was 0.03.
The value for UAACAGGGGGCCUCAGCAGAAGCGUUCACAUCGCAGCCCCUGUCAGAUUCUGGUGAAUCUGCGAAUUCUGCCGUAUAUCGC [A13U G30A U72C U80G] was 0.08.
Next, UAACAGGGGGCCUCAGCAAAGGCGUUCACGUCGCAGCCCCUGUCAGAUUCUGGUGAAUCUGCGAAUUCUGCUGUAUAUCUC [A13U G19A A21G]: 0.18.
With UAACAGGGGGCCUCAGCAGAAGCGUUCACGUCGCAACCCCUGUCAGAUUCUGGUAAAUCUGCGAAUUCUGCUGUAUAUCUC [A13U G36A G55A], the self-cleavage is 0.16.
The value for UAACAGGGGGCCUCAGCACAGGCGUGCACGUCGCGGCCCCUGUCAGAUUCUGGUGAAUCUGCGAAUUCUGCUGUAUGUCUC [A13U G19C A21G U26G A35G A77G] was 0.04.
The value for UAACAGGGGGCCUCAACAGAAGCGUUCACGUCGCUGCCCCUGUCAGAUUCUGGCGAAUCUGCGAAUCCUGCUGUAUAUCUC [A13U G16A A35U U54C U67C] was 0.1; that for UAACAGGGGGCCUCAUCAGAAGCGUUCACGUCGCAGCCCCUGACAGAUUCUGGUGAAUCUGCGAAUUCUGCUGUAUAUCUU [A13U G16U U43A C81U] was 0.52; that for UAACAGGGGGCCUCAGCAGAAGCGUUCACGUCGCAACCCCUGUCAGAUUCUGGUGAAUCUGCGAAUUCUGCUGUAUUUCUC [A13U G36A A77U] was 0.31.
Next, UAACAGGGGGCCUCAUCUGAAGCGUUCACGUCGCAGCCCCUGUCAGAUUCUGGUGAAUCUGCGAAUACUGCUGUAUAUCUC [A13U G16U A18U U67A]: 0.08.
For UAACAGGGGGCCUCAGCAGAAGCAUUCACGUCGCAGCCCCUGUCGGAUUCAGGUGAAUCUGCGAAUUCUGCUGUAUAUCUC [A13U G24A A45G U51A], the self-cleavage was determined as 0.09.
The value for UAACAGGGGGCCUCAGCAUAAGCGUUCACGUCGCAGCCCCUGUCUGAUUCUGGUGAAUCAGCGAAUUCUGCUGUAUAUCUC [A13U G19U A45U U60A] was 0.07; that for UAACAGGGGGCCUCAGCAGAAACGUUCACGUCGCAGCCCCUGGCAGAUUCUGGUGAAUCUGCGAAUUCUGCUGUAUAUCUC [A13U G22A U43G] was 0.2.
The value for UAACAGGGGGCCUCAGCAGAAGCGUUCACGUCUCAGCCCCUGUCAGACUCUGGUGAGUCUGUGAAUUCUGCUGUAUAUCUC [A13U G33U U48C A57G C62U] was 0.14; that for UAACAGGGGGCCUCAGCAUAAGCGUUCACGUCGCAGCCCCUGUCAGAUUCUGGUGAAUCUGCGAAUUCUGCUGUAUGUCUC [A13U G19U A77G] was 0.23; that for UAACAGGGGGCCUCAUCAGAAGCGUUCACGUCGUAGCCCCUGUCAGAUUCUGGUGAAUCUGCGAAUUCUGCUGUAUAUCUC [A13U G16U C34U] was 0.15.
Next, UAACAGGGGGCCUCAGCAGAAGCCUUCACGUCGCAGCCCCUGUCAGAUUCUGGUGAAUCUGCGAAUUCUGCUGUCUAUCUC [A13U G24C A75C]: 0.21.
Turning to UAACAGGGGGCCUCAUCAGAGGCGUUCACGUCGCAGCACCUGUCAGAUUCUGGUGAAUCUGCGAAUUCUGCUGUAUAUCUC [A13U G16U A21G C38A], the self-cleavage amounted to 0.45.
The value for UAACAGGGGGCCUCAUCAGAAGCGUUCACGUCGCAGCCCCUGUCAGAUUCUGGUGAGUCAGCGAAUUCUGCUGAAUAUCUC [A13U G16U A57G U60A U74A] was 0.14; that for UAACAGGGGGCCUCAGCAGAAGCGUUCACACCGCAGCCCCAGUCAGACUCUGGUGAAUCUGCGAAUUCUGCUGUAUAUCUC [A13U G30A U31C U41A U48C] was 0.18; that for UAACAGGGGGCCUCAGCAGAAGCGUUCACGUCGCAGCCCCUGUCAGAUUCUGGUGAAUCUGAGAAUUCGGCUGUAUAUCUC [A13U C62A U69G] was 0.39.
With UAACAGGGGGCCUCAGCAGAAGCGUUCACGUCGCAUCCCUUGUCAGAUUCUGGCGAAUCUGCGAAUUCAGCUGUAUAUCUC [A13U G36U C40U U54C U69A], the self-cleavage worked out at 0.12.
Next, UAACAGGGGGCCUCAGCAGAACCGUUCACGUCGCAGCCCCUGUUAGAUUCUGGUGAAUCUGCGAAUUCCGCUGUAUACCUC [A13U G22C C44U U69C U78C]: 0.12; UAACAGGGGGCCUCAGCAUAAGCGUUCACGUCGCAGCCCCUGCCAGAUUCUGGUGAAUCUGCGAAUUCUGCUGUAUAUCUC [A13U G19U U43C]: 0.08; UAACAGGGGGCCUCAGCAGAAGCGUUCACGUCACGGCCCCUGUCUGAUUCUAGUGAAUCUGCGAAAUCUGCUGUAUAUCUC [A13U G33A A35G A45U G52A U66A]: 0.05.
The value for UAACAGGGGGCCUCAGCAGAAGCGUUCACAUCGCGGCCCCUGUCAGAUUCCGGUGAAUCUGCGAAUUCUGCUGUAUAUCUC [A13U G30A A35G U51C] was 0.17; that for UAACAGGGGGCCUCAACAGAAGCGUUCACGUCGCAGCCCCUGUCAGAUUCUGGUGAACCUGCGAACUCUGCAGUAUAUCUC [A13U G16A U58C U66C U72A] was 0.38; that for UAACAGGGGGCCUCAGCAGAAGCGUUCACGUCGCAGCCCCUGUCAGAUUCUGGUGAAUGAGCGAGCUCUGCUGUAUAUCCC [A13U C59G U60A A65G U66C U80C] was 0.11.
Take UAACAGGGGGCCUCAGCAGAAGCGUUCACGUCCCGGCCCGUGCCAGAUUCUGGUGAAUCUGCGAAUCCUGCUGUAUAUCUC [A13U G33C A35G C40G U43C U67C]: the self-cleavage is 0.11.
